Reference: article PMC12820563, “FoxP3 forms a head-to-head dimer in vivo and stabilizes its multimerization on adjacent microsatellites”
This is one part of the list.

target: T1, MBP-FoxP1dN (Mus musculus, UniProt P58462 326-579); test: PD-seq (MBP pull-down with sequencing); 20 mM Tris-HCl pH 7.5, 100 mM NaCl, 1.5 mM MgCl2, 0.4 uM protein, 0.1 uM dsDNA library, 30 min, room temperature, amylose pull-down; high values mean tight binding; settings: protein: recombinant; tags: His6-MBP; chain copies: 2; dsDNA, one strand shown
T1 sequence: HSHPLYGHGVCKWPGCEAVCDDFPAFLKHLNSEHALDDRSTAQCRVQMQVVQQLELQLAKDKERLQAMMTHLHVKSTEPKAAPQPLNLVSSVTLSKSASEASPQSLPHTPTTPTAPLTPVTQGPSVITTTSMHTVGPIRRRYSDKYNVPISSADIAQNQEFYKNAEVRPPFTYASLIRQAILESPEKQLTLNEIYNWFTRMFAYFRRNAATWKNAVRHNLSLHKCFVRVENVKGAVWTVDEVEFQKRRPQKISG
Summary of the method: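 Protein and DNA were mixed at 0.4 µM and 0.1 µM and held for 30 min at room temperature in Tris pH 7.5 buffer with NaCl and MgCl2; the protein was a His6-MBP-tagged, N-terminally truncated mouse FoxP3 or FoxP1 fragment from E. coli, and the DNA a Klenow-filled double-stranded degenerate library. Amylose resin captured the complexes, which were washed three times. Binding is read as reads-per-million enrichment of pull-down versus input after Illumina sequencing, with replicates pooled.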

| Sequence | binding signal |
| --- | --- |
| GATGATTGTTCTCCCAGCTGATGAATTACTGGAATCGAGTAAACAAATTTTCCTAATCTTTCTGTTCAAGCGCCATCTAC | 1.07 RPM ratio (pull-down/input) |
| GATGATTGTTCTCCCAGCTGATGAATTCAATTCATCGAGTAAACAAATTTTCCTAATCTTTCTGTTCAAGCGCCATCTAC | 0.919 RPM ratio (pull-down/input) |
| GATGATTGTTCTCCCAGCTGATGAATTCGCGCTTTCGAGTAAACAAATTTTCCTAATCTTTCTGTTCAAGCGCCATCTAC | 0.94 RPM ratio (pull-down/input) |
| GATGATTGTTCTCCCAGCTGATGAATTAACCACATCGAGTAAACAAATTTTCCTAATCTTTCTGTTCAAGCGCCATCTAC | 1.12 RPM ratio (pull-down/input) |
| GATGATTGTTCTCCCAGCTGATGAATTATTGAACTCGAGTAAACAAATTTTCCTAATCTTTCTGTTCAAGCGCCATCTAC | 0.961 RPM ratio (pull-down/input) |
| GATGATTGTTCTCCCAGCTGATGAATTTGTCCACTCGAGTAAACAAATTTTCCTAATCTTTCTGTTCAAGCGCCATCTAC | 1.11 RPM ratio (pull-down/input) |
| GATGATTGTTCTCCCAGCTGATGAATTGGCATGCTCGAGTAAACAAATTTTCCTAATCTTTCTGTTCAAGCGCCATCTAC | 0.93 RPM ratio (pull-down/input) |
| GATGATTGTTCTCCCAGCTGATGAATTCAAGTGGTCGAGTAAACAAATTTTCCTAATCTTTCTGTTCAAGCGCCATCTAC | 0.772 RPM ratio (pull-down/input) |
| GATGATTGTTCTCCCAGCTGATGAATTTCGGACGTCGAGTAAACAAATTTTCCTAATCTTTCTGTTCAAGCGCCATCTAC | 0.832 RPM ratio (pull-down/input) |
| GATGATTGTTCTCCCAGCTGATGAATTGAGCATATCGAGTAAACAAATTTTCCTAATCTTTCTGTTCAAGCGCCATCTAC | 0.915 RPM ratio (pull-down/input) |
| GATGATTGTTCTCCCAGCTGATGAATTGAACAAATCGAGTAAACAAATTTTCCTAATCTTTCTGTTCAAGCGCCATCTAC | 1.12 RPM ratio (pull-down/input) |
| GATGATTGTTCTCCCAGCTGATGAATTAACTCCTTCGAGTAAACAAATTTTCCTAATCTTTCTGTTCAAGCGCCATCTAC | 0.846 RPM ratio (pull-down/input) |
| GATGATTGTTCTCCCAGCTGATGAATTGAACTTATCGAGTAAACAAATTTTCCTAATCTTTCTGTTCAAGCGCCATCTAC | 0.878 RPM ratio (pull-down/input) |
| GATGATTGTTCTCCCAGCTGATGAATTTCATGTATCGAGTAAACAAATTTTCCTAATCTTTCTGTTCAAGCGCCATCTAC | 1.06 RPM ratio (pull-down/input) |
| GATGATTGTTCTCCCAGCTGATGAATTCTGCAAGTCGAGTAAACAAATTTTCCTAATCTTTCTGTTCAAGCGCCATCTAC | 0.822 RPM ratio (pull-down/input) |
| GATGATTGTTCTCCCAGCTGATGAATTCGCGCTGTCGAGTAAACAAATTTTCCTAATCTTTCTGTTCAAGCGCCATCTAC | 0.873 RPM ratio (pull-down/input) |
| GATGATTGTTCTCCCAGCTGATGAATTAGTCCATTCGAGTAAACAAATTTTCCTAATCTTTCTGTTCAAGCGCCATCTAC | 0.914 RPM ratio (pull-down/input) |
| GATGATTGTTCTCCCAGCTGATGAATTCTTCCTCTCGAGTAAACAAATTTTCCTAATCTTTCTGTTCAAGCGCCATCTAC | 0.877 RPM ratio (pull-down/input) |
| GATGATTGTTCTCCCAGCTGATGAATTGCAAAGCTCGAGTAAACAAATTTTCCTAATCTTTCTGTTCAAGCGCCATCTAC | 1.09 RPM ratio (pull-down/input) |
| GATGATTGTTCTCCCAGCTGATGAATTTGCTAGCTCGAGTAAACAAATTTTCCTAATCTTTCTGTTCAAGCGCCATCTAC | 0.906 RPM ratio (pull-down/input) |
| GATGATTGTTCTCCCAGCTGATGAATTTGGGGGCTCGAGTAAACAAATTTTCCTAATCTTTCTGTTCAAGCGCCATCTAC | 0.823 RPM ratio (pull-down/input) |

| Sequence | binding signal |
| --- | --- |
| GATGATTGTTCTCCCAGCTGATGAATTTTGCTGATCGAGTAAACAAATTTTCCTAATCTTTCTGTTCAAGCGCCATCTAC | 1.29 RPM ratio (pull-down/input) |
| GATGATTGTTCTCCCAGCTGATGAATTTGAAGCCTCGAGTAAACAAATTTTCCTAATCTTTCTGTTCAAGCGCCATCTAC | 0.813 RPM ratio (pull-down/input) |
| GATGATTGTTCTCCCAGCTGATGAATTGAGATCTTCGAGTAAACAAATTTTCCTAATCTTTCTGTTCAAGCGCCATCTAC | 0.805 RPM ratio (pull-down/input) |
| GATGATTGTTCTCCCAGCTGATGAATTTAGCACTTCGAGTAAACAAATTTTCCTAATCTTTCTGTTCAAGCGCCATCTAC | 1.02 RPM ratio (pull-down/input) |
| GATGATTGTTCTCCCAGCTGATGAATTGTATAACTCGAGTAAACAAATTTTCCTAATCTTTCTGTTCAAGCGCCATCTAC | 1.04 RPM ratio (pull-down/input) |
| GATGATTGTTCTCCCAGCTGATGAATTTAGTGTTTCGAGTAAACAAATTTTCCTAATCTTTCTGTTCAAGCGCCATCTAC | 1.15 RPM ratio (pull-down/input) |
| GATGATTGTTCTCCCAGCTGATGAATTGTAGTAATCGAGTAAACAAATTTTCCTAATCTTTCTGTTCAAGCGCCATCTAC | 1.58 RPM ratio (pull-down/input) |
| GATGATTGTTCTCCCAGCTGATGAATTGCTTACTTCGAGTAAACAAATTTTCCTAATCTTTCTGTTCAAGCGCCATCTAC | 1.48 RPM ratio (pull-down/input) |
| GATGATTGTTCTCCCAGCTGATGAATTCTTAAATTCGAGTAAACAAATTTTCCTAATCTTTCTGTTCAAGCGCCATCTAC | 0.955 RPM ratio (pull-down/input) |
| GATGATTGTTCTCCCAGCTGATGAATTTTGATTTTCGAGTAAACAAATTTTCCTAATCTTTCTGTTCAAGCGCCATCTAC | 1.13 RPM ratio (pull-down/input) |
| GATGATTGTTCTCCCAGCTGATGAATTTAACGGCTCGAGTAAACAAATTTTCCTAATCTTTCTGTTCAAGCGCCATCTAC | 0.757 RPM ratio (pull-down/input) |
| GATGATTGTTCTCCCAGCTGATGAATTCTGAAGTTCGAGTAAACAAATTTTCCTAATCTTTCTGTTCAAGCGCCATCTAC | 0.865 RPM ratio (pull-down/input) |
| GATGATTGTTCTCCCAGCTGATGAATTTCAGAAGTCGAGTAAACAAATTTTCCTAATCTTTCTGTTCAAGCGCCATCTAC | 0.764 RPM ratio (pull-down/input) |
| GATGATTGTTCTCCCAGCTGATGAATTCACGAAGTCGAGTAAACAAATTTTCCTAATCTTTCTGTTCAAGCGCCATCTAC | 0.877 RPM ratio (pull-down/input) |
| GATGATTGTTCTCCCAGCTGATGAATTCCAACCTTCGAGTAAACAAATTTTCCTAATCTTTCTGTTCAAGCGCCATCTAC | 0.761 RPM ratio (pull-down/input) |
| GATGATTGTTCTCCCAGCTGATGAATTGGATGAATCGAGTAAACAAATTTTCCTAATCTTTCTGTTCAAGCGCCATCTAC | 0.957 RPM ratio (pull-down/input) |
| GATGATTGTTCTCCCAGCTGATGAATTGCTGTACTCGAGTAAACAAATTTTCCTAATCTTTCTGTTCAAGCGCCATCTAC | 1.01 RPM ratio (pull-down/input) |
| GATGATTGTTCTCCCAGCTGATGAATTGTTCTAATCGAGTAAACAAATTTTCCTAATCTTTCTGTTCAAGCGCCATCTAC | 1.41 RPM ratio (pull-down/input) |
| GATGATTGTTCTCCCAGCTGATGAATTTATGAAGTCGAGTAAACAAATTTTCCTAATCTTTCTGTTCAAGCGCCATCTAC | 1.07 RPM ratio (pull-down/input) |
| GATGATTGTTCTCCCAGCTGATGAATTACTAAAGTCGAGTAAACAAATTTTCCTAATCTTTCTGTTCAAGCGCCATCTAC | 1.21 RPM ratio (pull-down/input) |
| GATGATTGTTCTCCCAGCTGATGAATTTTTAAAGTCGAGTAAACAAATTTTCCTAATCTTTCTGTTCAAGCGCCATCTAC | 0.941 RPM ratio (pull-down/input) |

| Sequence | binding signal |
| --- | --- |
| GATGATTGTTCTCCCAGCTGATGAATTACGTTCCTCGAGTAAACAAATTTTCCTAATCTTTCTGTTCAAGCGCCATCTAC | 0.969 RPM ratio (pull-down/input) |
| GATGATTGTTCTCCCAGCTGATGAATTAAAACTTTCGAGTAAACAAATTTTCCTAATCTTTCTGTTCAAGCGCCATCTAC | 0.94 RPM ratio (pull-down/input) |
| GATGATTGTTCTCCCAGCTGATGAATTAAGCGCTTCGAGTAAACAAATTTTCCTAATCTTTCTGTTCAAGCGCCATCTAC | 0.889 RPM ratio (pull-down/input) |
| GATGATTGTTCTCCCAGCTGATGAATTTCACCTGTCGAGTAAACAAATTTTCCTAATCTTTCTGTTCAAGCGCCATCTAC | 0.749 RPM ratio (pull-down/input) |
| GATGATTGTTCTCCCAGCTGATGAATTGTCCTCGTCGAGTAAACAAATTTTCCTAATCTTTCTGTTCAAGCGCCATCTAC | 1.04 RPM ratio (pull-down/input) |
| GATGATTGTTCTCCCAGCTGATGAATTTCTCAACTCGAGTAAACAAATTTTCCTAATCTTTCTGTTCAAGCGCCATCTAC | 0.898 RPM ratio (pull-down/input) |
| GATGATTGTTCTCCCAGCTGATGAATTAGTCGCTTCGAGTAAACAAATTTTCCTAATCTTTCTGTTCAAGCGCCATCTAC | 0.918 RPM ratio (pull-down/input) |
| GATGATTGTTCTCCCAGCTGATGAATTCTTGATATCGAGTAAACAAATTTTCCTAATCTTTCTGTTCAAGCGCCATCTAC | 1.06 RPM ratio (pull-down/input) |
| GATGATTGTTCTCCCAGCTGATGAATTTGTGGTGTCGAGTAAACAAATTTTCCTAATCTTTCTGTTCAAGCGCCATCTAC | 1.21 RPM ratio (pull-down/input) |
| GATGATTGTTCTCCCAGCTGATGAATTGACCCTATCGAGTAAACAAATTTTCCTAATCTTTCTGTTCAAGCGCCATCTAC | 0.947 RPM ratio (pull-down/input) |
| GATGATTGTTCTCCCAGCTGATGAATTTAGGAGGTCGAGTAAACAAATTTTCCTAATCTTTCTGTTCAAGCGCCATCTAC | 0.815 RPM ratio (pull-down/input) |
| GATGATTGTTCTCCCAGCTGATGAATTTACCATATCGAGTAAACAAATTTTCCTAATCTTTCTGTTCAAGCGCCATCTAC | 1.44 RPM ratio (pull-down/input) |
| GATGATTGTTCTCCCAGCTGATGAATTCTCCCCGTCGAGTAAACAAATTTTCCTAATCTTTCTGTTCAAGCGCCATCTAC | 0.792 RPM ratio (pull-down/input) |
| GATGATTGTTCTCCCAGCTGATGAATTCATAAGTTCGAGTAAACAAATTTTCCTAATCTTTCTGTTCAAGCGCCATCTAC | 0.89 RPM ratio (pull-down/input) |
| GATGATTGTTCTCCCAGCTGATGAATTTCGGCCCTCGAGTAAACAAATTTTCCTAATCTTTCTGTTCAAGCGCCATCTAC | 0.763 RPM ratio (pull-down/input) |
| GATGATTGTTCTCCCAGCTGATGAATTTGGATAATCGAGTAAACAAATTTTCCTAATCTTTCTGTTCAAGCGCCATCTAC | 1.14 RPM ratio (pull-down/input) |
| GATGATTGTTCTCCCAGCTGATGAATTCTGCCAGTCGAGTAAACAAATTTTCCTAATCTTTCTGTTCAAGCGCCATCTAC | 0.818 RPM ratio (pull-down/input) |
| GATGATTGTTCTCCCAGCTGATGAATTATTCTCGTCGAGTAAACAAATTTTCCTAATCTTTCTGTTCAAGCGCCATCTAC | 0.942 RPM ratio (pull-down/input) |
| GATGATTGTTCTCCCAGCTGATGAATTACTGACATCGAGTAAACAAATTTTCCTAATCTTTCTGTTCAAGCGCCATCTAC | 1.1 RPM ratio (pull-down/input) |
| GATGATTGTTCTCCCAGCTGATGAATTTAAGGCATCGAGTAAACAAATTTTCCTAATCTTTCTGTTCAAGCGCCATCTAC | 1 RPM ratio (pull-down/input) |
| GATGATTGTTCTCCCAGCTGATGAATTTTAGATATCGAGTAAACAAATTTTCCTAATCTTTCTGTTCAAGCGCCATCTAC | 1.04 RPM ratio (pull-down/input) |
